This is one part of the list.
Each compound was assayed on T1, C. trachomatis L2/434/Bu expressing GFP (CTL2-GFP). Settings: total inclusion area; 28.5 h, 10 µM; inhibitor.
T1 construct: L2/434/Bu GFP intracellular growth in HeLa cells
Parameters: species or system HeLa; C. trachomatis total inclusion area by high-content imaging, normalised to DMSO
Summary of the method: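 Following bulk GFP and resorufin fluorescence reads, infected cells were fixed, Hoechst-stained and imaged on a high-content platform. Inclusion total area and number per well served as growth proxies; nuclei counts indicated host viability. MICs were derived as for the fluorescence assay.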

Row | SMILES | % of control remaining
1 | CS(=O)(=O)c1ccc(-c2nc(N)cc3ccccc23)cc1 [CBK085724] | 84.4839
2 | Cc1cccc(C)c1OCC(=O)Nc1ccccc1C(=O)N1CCOCC1 [CBK270096] | 92.7458
3 | CCOc1cccc(-c2cncc(N[C@H](C)c3ccccc3)n2)c1 [CBK066042] | 88.5991
4 | CC(Oc1ccc(Cl)cc1Cl)C(=O)Nc1sc2c(c1C(N)=O)CCCCCC2 (centres unmarked) [CBK265394] | 112.293
5 | CCOC(=O)C1CSCCN1C(=O)c1cnn(-c2ccc(Br)cc2)c1C (centres unmarked) [CBK304550] | 33.1306
6 | Cc1noc(C)c1CCC(=O)N1CC[C@H]2NC(=O)COc3ccccc3C/C=C/C[C@H]2C1 [CBK292115] | 99.4951
7 | COc1ccc(NC(=O)C(OC)c2ccccc2)cc1Cl (centres unmarked) [CBK264098] | 109.606
8 | O=C1S/C(=C\c2ccc(O)c([N+](=O)[O-])c2)C(=O)N1Cc1ccc(Cl)cc1 [CBK102929] | 91.0361
9 | Nc1ncc(-c2cccc3cccnc23)nc1NC1CCCCC1 [CBK063613] | 77.7542
10 | Cc1cccc(NC(=S)NCCc2ccc(S(N)(=O)=O)cc2)c1C [CBK264889] | 109.073
11 | O=C(CSCc1ccc([N+](=O)[O-])cc1)Nc1c[nH]c(=O)[nH]c1=O [CBK268549] | 103.61
12 | Cn1nc([N+](=O)[O-])nc1OCc1nc2ccccc2n1C [CBK265247] | 85.7292
13 | COc1cc(-c2nccnc2N[C@@H](CO)C(C)C)cc(OC)c1OC [CBK038023] | 110.556
14 | COc1ccc(C)cc1-n1ccc(C(=O)NCC2(C)CCCS2)n1 (centres unmarked) [CBK305355] | 87.7787
15 | COc1nccnc1N1CCN(Cc2ccccc2)CC1 [CBK084210] | 97.5771
16 | O=C(COc1ccc(Cl)cc1Br)N1CCCCCC1 [CBK058661] | 35.6854
17 | O=C(Nc1cccnc1)c1ccc(NC(=O)C2OCCc3ccccc32)cc1 (centres unmarked) [CBK269963] | 33.3858
18 | O=C(O)c1ccc2c(c1)C(=O)N(c1ccc(-c3ccc(N4C(=O)c5ccc(C(=O)O)cc5C4=O)cc3)cc1)C2=O [CBK261187] | 96.5575
19 | CCC(CNC(=O)c1ccoc1C)N1CCCC1 (centres unmarked) [CBK304798] | 108.873
20 | CC1CCCCN1S(=O)(=O)c1ccc(NC(=O)CCn2cnc3ccccc3c2=O)cc1 (centres unmarked) [CBK268495] | 107.677
21 | CCOC(=O)C(NC(=O)c1cc[nH]n1)c1cccc(C)c1C (centres unmarked) [CBK304131] | 73.604
22 | O=C(NCc1ccccn1)c1cnn2c(C(F)(F)F)cc(-c3cccs3)nc12 [CBK268195] | 105.188
23 | CCOc1cccc(NC(=O)/C(C#N)=C\c2cc(C)n(-c3cccc(C(=O)O)c3)c2C)c1 [CBK263186] | 135.073
24 | COc1ccccc1Cn1nc2nnc(-c3ccc(F)cc3)c(-c3ccc(F)cc3)n2c1=O [CBK286184] | 88.9187
25 | Cn1c2ccccc2c2nnc(SCc3ccc4nonc4c3)nc21 [CBK267515] | 96.1945

Row | SMILES | % of control remaining
26 | Cc1nc2c(c(=O)[nH]1)CC[C@@H]1CN(C(=O)C3CCCCC3)C[C@H]21 [CBK284407] | 76.6053
27 | Nc1ncc(-c2ccc(C(=O)N3CCOCC3)cc2)cc1C(=O)Nc1ccncc1 [CBK160202] | 92.5837
28 | C/C(=N\N1CCN(Cc2cccc3ccccc23)CC1)c1ccncc1 [CBK263574] | 81.0432
29 | Cc1scnc1CN1CCn2nc(C(O)Cc3ccccc3)cc2C1 (centres unmarked) [CBK307612] | 89.1848
30 | CCN(CC)C(=O)c1cn(CCC#N)nc1-c1cccc(OC)c1 [CBK305941] | 44.4734
31 | CC1CC(=O)c2cn/c(=N\c3ccccc3)[nH]c2C1 (centres unmarked) [CBK287884] | 85.0841
32 | O=C(O)C1C2CC(c3ccccc3)C(C2)C1C(=O)O (centres unmarked) [CBK287147] | 89.7576
33 | COc1ccc([C@@]23CC[C@@H](NC(=O)Nc4ccc(F)c(F)c4)C[C@@H]2N(C)CC3)cc1C#N [CBK067952T] | 62.0788
34 | CCn1c2ccccc2c2cc(/C=N/N3CCN(c4ccccc4OC)CC3)ccc21 [CBK101168] | 101.534
35 | OCc1ccc(CN2Cc3nc[nH]c3C[C@H]2c2nc(Cc3ccccc3)no2)o1 [CBK288955] | 119.097
36 | Cn1nccc1CNc1ncn(CC(=O)N2CCCCCC2)n1 [CBK306454] | 47.8524
37 | CC1(C)Cc2c(ccc3ccccc23)C(CCN2CCCCC2)=N1 [CBK261746] | 69.7983
38 | CCC1CCC2(CC1)NC(=O)N(Cc1cc(-c3ccccc3)on1)C2=O (centres unmarked) [CBK294977] | 48.5935
39 | O=c1[nH]c2cc(Cl)c(Br)nc2[nH]1 [CBK026531] | 45.6863
40 | O=C(NC1CCOCC1)c1n[nH]c2c1CCC2 [CBK174626] | 62.4078
41 | CN(C(=O)CN1CCN(c2cc(-c3cccc([N+](=O)[O-])c3)ncn2)CC1)c1ccccc1 [CBK091137] | 91.2848
42 | CCCS(=O)(=O)N1CCN(C(=O)c2cccnc2)CC1 [CBK264239] | 129.788
43 | O=C(Cn1c(NCCO)nc2ccccc21)c1ccco1 [CBK264127B] | 97.2177
44 | COc1ccccc1C1(O)CCCC2CN(C(C)=O)CC21 (centres unmarked) [CBK283134] | 102.707
45 | COc1ccc(Cl)cc1S(=O)(=O)N1CCCC(C(=O)NCc2ccccn2)C1 (centres unmarked) [CBK269761] | 97.7743
46 | CC(=O)c1c(C)[nH]c(C(=O)N2CCN(C3CCN(C)CC3)CC2)c1C [CBK149098] | 102.477
47 | CCOC(=O)c1cccnc1-c1cncnc1 [CBK149236] | 75.3649
48 | CNC(=O)c1cccnc1N1CCN(CCCC(c2ccc(F)cc2)c2ccc(F)cc2)CC1 [CBK025309C] | 86.5331
49 | CCn1cc(C(=O)N2C[C@H](C(=O)OC)[C@@H](c3ccc(F)cc3)C2)cn1 [CBK283719] | 56.4624
50 | O=C(O)CCc1ccc(-c2cccs2)n1NC(=O)c1sc2ccccc2c1Cl [CBK264782] | 106.896

Reference: PMC12040169 (PLOS Biology, 2025)
